Experimental data reported in PubChem BioAssay (NCI).
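96-well plates; 48 h exposure; 5 concentrations. Endpoints by linear interpolation between flanking doses. Not reached: highest tested concentration assigned. GI50 marks 50% less growth. At the TGI there is no net growth.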

System: NCI-H322M lung
Assay: inhibition of tumour cell growth, NCI panel, 48 h

With CN1CCN(c2ccc(C(=O)/C=C/c3ccc(Br)cc3)cc2)CC1 as the compound, how does the GI50 read?
The GI50 was > 100 µM.

What about the TGI of the same compound?
Its TGI is > 100 µM.
